# US20100196361A1, “Method of inhibition of vascular development using an antibody” (DYAX CORP., priority 2003, published 2010)
# B1: DX-2220: full length, IgG1, germlined human anti-Tie1 antibody E3b; LC SEQ ID NO:700, HC SEQ ID NO:701 (antibody)
# heavy: EVQLLESGGGLVQPGGSLRLSCAASGFTFSMYGMVWVRQAPGKGLEWVSVISPSGGNTGYADSVKGRFTISRDNSKNTLYLQMNSLRAEDTAVYYCARAPRGYSYGYYYWGQGTLVTVSS[left out - human IgG1 constant region]
# light: DIQMTQSPSSLSASVGDRVTITCRASQGIGHYLAWYQQKPGKVPKLLIYTASTLQSGVPSRFSGSGSGTDFTLTISSLQPEDVATYYCQQFNSYPHTFGQGTRLEIKRTVAAPSVFIFPPSDEQLKSGTASVVCLLNNFYPREAKVQWKVDNALQSGNSQESVTEQDSKDSTYSLSSTLTLSKADYEKHKVYACEVTHQGLSSPVTKSFNRGEC
# modifications: Antibody
# Legend:
# HUVEC = experiment: Tube formation by HUVEC in collagen gel; assay type: cell-based, human
# Protocol: Human Umbilical vein endothelial cells (HUVEC) were obtained by treating fresh human umbilical cord veins with Trypsin-EDTA (1×) (Gibco/Invitrogen) for 20-25 minutes at 37° C. The cells were cultured in a T-25 flask coated with attachment factor (AF), (Cascade Biologics) in RPMI 1640 medium supplemented with 10% FCS, 0.4% BBE, 1% 1-glutamin, 1% penicillin/streptomycin. Primary cultures were detached with warm Trypsin-EDTA and used when confluent at the second or third passage. The cells were maintained in a proliferative state by culturing them in a split ratio 1:2 at an approximate density of the monolayer of about 60-80%. To dissociate the cells, HUVEC monolayers were treated with trypsin/EDTA (500 μl/dish) at 37° C. for 3 min. Trypsin activity was stopped by adding 3 volumes of complete RPMI medium. The cells were carefully scraped, separated by repeated pipetting, and finally washed with PBS.
# After 2 passages HUVECs were seeded in their culture medium (40×10^3/50 μl/well of a 96-well plate) on a collagen gel (50 μl of collagen I 1.5 mg/ml) prepared by mixing 7.5 volumes of 2 mg/ml collagen (Collagen R; Serva, Heidelberg, Germany), 1 volume of 10× MEM, 1.5 volume of NaHCO3 (15.6 mg/ml) and ˜1 volume of NaOH to adjust the pH to 7.4. […] The assay was performed with a streptavidin antibody used as a control (from 1 ng/ml to 10 μg/ml): The total length of the tube network on the culture surface was quantified at 40× magnification by the METAVUE™ Software (Universal Imaging Corporation). Results from triplicate wells were expressed as mean vessel area per field ±SEM (relative units). […]
# Germlined E3 (DX-2220) and its parental antibody (DX-2200) were evaluated in the tube formation assay in a collagen type-I matrix. […] The total length of the tube network on the culture surface was quantified at 40× magnification by the METAVUE™ Software (Universal Imaging Corporation). Results from triplicate wells were expressed as mean vessel area per field ±SEM (relative units). […]
# [1] = ELISA of antibody serum levels in tumor-bearing mice; assay type: in vivo, mouse; conditions: ocular bleeds after three every other day dosings and terminal bleeds, average
# From the text: Analyses included gamma counting of all samples. […] DX-2240, due to its interaction with Tie1 on the surface of endothelial cells, may accumulate in areas of high vascularization such as the lung. Therefore, multiple administrations of DX-2240 may be required to achieve an effective steady-state level of this antibody in the serum of mice. ELISA on ocular bleeds following three every other day dosings, as well as terminal bleed samples from tumor-bearing mice treated with DX-2220, were performed.
# [2] = system: human LNM35 lung cancer xenografts; experiment: LNM35 lung cancer xenograft in nude mice; assay type: in vivo, mouse
# Protocol: The effect of DX-2220 on tumor growth in mice bearing human LNM35 lung cancer xenografts was tested. For these studies, LNM35 cells were injected subcutaneously in the lateral thorax of athymic nude mice. Four days after tumor cell implantation, treatment was initiated with DX-2220 or A2-SV (negative control antibody) at a dosage of 20 mg/kg, three times a week. Tumor sizes were measured at day 6, 8 and 10 post antibody treatment.
# (§1) In addition to the in vivo studies presented above, four additional mouse xenografts studies were performed. These studies were conducted either according to the protocols used in the SW-480 or LNM35 study.
# The anti-Tie1 antibody was also evaluated for its effect on implanted tumors. Tumor cells were injected subcutaneously into the abdominal region of mice (Balb/C nu/nu female mice, 5-6 weeks old). The following tumor cells were tested: a lung carcinoma (mouse syngeneic Lewis lung carcinoma (LLC)); human lung carcinoma LNM35; an aggressive human colon carcinoma clone (SW480R). Treatments with anti-Tie1 antibody were initiated 4-6 days post-implantation. The anti-Tie1 antibodies or a control antibody (the A2 anti-streptavidin antibody) were administered intraperitoneally at 20 mg/kg every second day. Tumor volume was measured every second day and calculated as 0.5×height×width×depth.
# [3] = system: PC-3 (human prostate cancer); experiment: PC-3 xenograft in mice; assay type: in vivo, mouse; conditions: day 28 after start of treatment
# Protocol: as §1
molecule,measurement,setting,value
B1,"IC50, tube formation","HUVEC; HUVEC, collagen type-I matrix, 0.1 ng/ml to 100 ng/ml tested",less than 10 ng/ml
same,IC50,"HUVEC; HUVEC, conversion of 10 ng/ml",< 0.066 nM
same,inhibition of tube formation by HUVECs,HUVEC; collagen type-I gel,inhibits tube formation
same,levels in the serum,[1],500 µg/mL
same,body weight,[2]; 20 mg/kg three times a week,did not exhibit any significant loss in body weight
same,slowing of tumor progression,"[2]; 20 mg/kg three times a week from day 4, versus A2-SV, p=0.037",~60%
same,inhibition of tumor progression,"[2]; LNM35 #3, day 21 after start of treatment",30% inhibition @ day 21
same,inhibition of tumor progression,[3],24% inhibition @ day 28
